These results are taken from ChEMBL document CHEMBL4888484, “Replenishing the malaria drug discovery pipeline: Screening and hit evaluation of the MMV Hit Generation Library 1 (HGL1) against asexual blood stage Plasmodium falciparum ,using a nano luciferase reporter read-out” (2022).

Among all 150,000 compounds or so, about 540 (0.36%) showed an effect of 50% or more. The list shows a part of the results.

The subject of the experiment is Plasmodium falciparum. In words: Primary screen in NF54 nanoGlo assay, in single point, at 2uM, 72h; a lower Z score goes with more inhibition. The format is functional, Erythrocyte. The conditions noted are these: timepoint 72 hour.
Usually % Inhibition stands for the relative decrease from the control value, in per cent. Take `CCOc1cc(N2CC=C(c3cccnc3)C2)nc(C)n1`: the “% Inhibition” value is on record as -2% and the Z score is 0.29.

Consider `CC(C)CNC(=O)NC(=O)CN1CCCC[C@@H]1C`, for which the “% Inhibition” value is on record as -4% and the Z score was determined as 0.46.

Turning to `Cc1cccc(C(=O)N[C@H]2CCOC[C@H]2C2CCOCC2)c1F`, the “% Inhibition” value is -8% and the Z score was determined as 0.86.

As for `O=C(Nc1ccccc1Cl)[C@@H]1CN(C(=O)Cc2cccs2)CCO1`, the “% Inhibition” value is given as -16% and the Z score is on record as 2.87.

Take `Cc1cc(NC(=O)[C@H]2CCCN(C(=O)c3ccc(Cl)c(Cl)c3)C2)no1`: the “% Inhibition” value is given as -2% and the Z score stood at 0.17.

On to `COCCCOC1CN(C(=O)c2ccoc2C)C1`, for which the “% Inhibition” value is 32% and the Z score was -3.58.

With `CC(C)(C)OC(=O)N1CCC(=O)C12CCC2`, the “% Inhibition” value was found to be 6% and the Z score is reported as -0.89.

For the compound `COc1ccc(OC)c(N2C(=O)c3cccnc3[C@H]2Nc2ccc3c(c2)OCCO3)c1`, the “% Inhibition” value was -1% and the Z score was determined as 0.09.

On to `O=C(C1CCN(c2ccc(F)c(F)c2)C1=O)N1CC2CCCC2C1` (stereo not given), for which the “% Inhibition” value is -4% and the Z score is on record as 0.67.

For `C[C@H](NC(=O)NCCc1nccn1C(F)F)c1nccs1`, the “% Inhibition” value stood at 16% and the Z score is listed as -1.99.

`Cc1nc(C(C)(C)C)sc1[C@H](C)NCc1nccn1CC(C)C`: the “% Inhibition” value is on record as 1% and the Z score was -0.1.

As to `C[C@H](NC(=O)c1ccc(-c2noc(C3CC3)n2)cc1)c1n[nH]c(N)n1`, the “% Inhibition” value is -4% and the Z score came to 0.79.

Consider `N#CC1CCN(C(=O)NC2CCCC2)CC1`, for which the “% Inhibition” value is listed as -18% and the Z score is given as 2.24.

In the case of `CC(C)NC(=O)N1C[C@H]2CCCC(=O)N(Cc3cccc(F)c3)[C@H]2C1`, the “% Inhibition” value came out at 36% and the Z score is given as -0.74.

Consider `CCS(=O)(=O)c1ccc(N2CC(C)CC2c2cccnc2)cc1` (stereo not given), for which the “% Inhibition” value was found to be 5% and the Z score is reported as -0.5.

Regarding `CCc1nn(-c2ccc(F)cc2)c(N2CCN(C(C)C)CC2)c1CN(CC(C)C)C(=O)C1CCCCC1`, the “% Inhibition” value is on record as -16% and the Z score was found to be 2.24.

In the case of `Cc1ccc2nonc2c1S(=O)(=O)Nc1ccc(F)cc1`, the “% Inhibition” value is recorded as 10% and the Z score is -1.34.

For the compound `Cc1nc[nH]c1CN(C)Cc1c(C)noc1C`, the “% Inhibition” value is given as 7% and the Z score was -0.96.

In the case of `CNc1nc(C(N)=O)c(NC(=O)CCc2c(C)noc2C)s1`, the “% Inhibition” value is listed as -10% and the Z score came to 0.94.

Turning to `O=C(c1cc(C2CC2)[nH]n1)N1CCc2nocc2C1`, the “% Inhibition” value is 10% and the Z score is given as -1.42.

`NC(=O)C1(CNc2ncccc2Cl)CCOCC1`: the “% Inhibition” value is -1% and the Z score is 0.14.

Regarding `CC1=CCCN(C(=O)Nc2ncc(C3CCOCC3)s2)C1`, the “% Inhibition” value is -1% and the Z score amounted to 0.28.

For `Cn1ccnc1N1CCN(c2ncc(Cl)cn2)CC1`, the “% Inhibition” value is reported as -14% and the Z score came to 2.61.

In the case of `Cc1nn(C)c(C)c1CCC(=O)N1CCNC(=O)[C@@H](CC(C)C)NC(=O)c2cc(F)ccc2OCCn2cc(nn2)CC1`, the “% Inhibition” value is listed as -19% and the Z score is on record as 2.13.

Regarding `O=C(c1nc2ccccn2c1F)N1CCC(c2nnc3n2CCCCC3)CC1`, the “% Inhibition” value was -10% and the Z score amounted to 1.8.

On to `CS(=O)(=O)c1ccc(C(=O)Nc2cccnn2)cc1`, for which the “% Inhibition” value is -3% and the Z score stood at 0.52.

As to `Cc1noc2ncnc(NCCN3CCOC3=O)c12`, the “% Inhibition” value is recorded as -10% and the Z score came to 1.05.

For `CCN(CCC(F)(F)F)C(=O)c1ccc(C)s1`, the “% Inhibition” value came out at 2% and the Z score is -0.3.

In the case of `C#CCCCCC(=O)Nc1cnccc1N1CCOCC1`, the “% Inhibition” value is -9% and the Z score worked out at 0.8.

`CC(C)C[C@H](NC(=O)N1C2CCC1CC1(CC1)C2)C(=O)N1CCOCC1`: the “% Inhibition” value is -3% and the Z score is 0.47.

`Cc1cnc(C[C@H]2CCCN(Cc3ccccc3)C2)n1Cc1ccccc1`: the “% Inhibition” value amounted to 6% and the Z score is -0.92.

As for `CCN1CCCCc2cc(C(=O)N[C@H]3CCS(=O)(=O)C3)sc21`, the “% Inhibition” value is -2% and the Z score is reported as 0.2.

Regarding `Cc1cccc(N(CC(=O)Nc2ccc(OC[C@H]3CCCCO3)cc2)S(C)(=O)=O)c1`, the “% Inhibition” value was -25% and the Z score was found to be 2.55.

Take `CC(C)(C)OC(=O)NC1CCN(CC(C#N)CCC#N)C1` (stereo not given): the “% Inhibition” value is given as -11% and the Z score is recorded as 1.41.

Take `CN(Cc1cc2n(n1)CCNC2)Cc1nc(-c2ccccc2)cs1`: the “% Inhibition” value is -12% and the Z score came to 1.54.

As to `O=C(Cc1cccs1)NCCc1nc(C2CC2)cc(C(F)(F)F)n1`, the “% Inhibition” value was -9% and the Z score is reported as 1.03.

As to `CC(C)(NCc1cc(Cl)sc1Cl)c1nnc2n1CCCC2`, the “% Inhibition” value is given as 4% and the Z score is reported as -0.69.

On to `COCCCN(C)CCNc1ncc(Cl)cc1F`, for which the “% Inhibition” value was -4% and the Z score was 0.49.

With `O=C1c2ccccc2C(=O)N1CCCc1nc(C2CCCC2)no1`, the “% Inhibition” value is -11% and the Z score came out at 1.27.

For `Fc1ccccc1Oc1nc(N2CCCCC2)nc2c1CN(Cc1ccc3c(c1)OCO3)CC2`, the “% Inhibition” value is on record as -5% and the Z score is 0.68.

`O=C(CCc1c[nH]c2ccccc12)N1CC(N2CC(F)(F)C[C@H]2CO)C1`: the “% Inhibition” value is listed as -8% and the Z score was determined as 0.87.

As for `O=C(OCC(=O)N1CCCc2ccccc21)c1cnccn1`, the “% Inhibition” value is -10% and the Z score worked out at 1.86.

With `CCCc1noc([C@H](C)Nc2ccc(OC)nc2)n1`, the “% Inhibition” value is 10% and the Z score is listed as -1.26.

On to `Nc1nc(NC2CC2)cc(N2Cc3cnn(CCO)c3C2)n1`, for which the “% Inhibition” value is listed as -17% and the Z score came to 2.19.

Consider `O=C(Nc1cccc(F)c1)N1CCC2(CC1)N[C@@H](Cc1ccccc1)C(=O)N2Cc1ccccc1`, for which the “% Inhibition” value was -11% and the Z score is 1.32.

For `COCc1nc(CCNC(=O)C2CCC2)no1`, the “% Inhibition” value is -4% and the Z score was determined as 0.45.

As to `Cc1cc(S(=O)(=O)N2CCC3(CC2)CNC(=O)O3)c(Cl)cc1F`, the “% Inhibition” value is -4% and the Z score came out at 0.85.

As to `O=C(NCCc1ccncc1)c1c[nH]c2ccc(Cl)cc2c1=O`, the “% Inhibition” value is 8% and the Z score is listed as -1.03.

Regarding `CC1=C[C@@H](CN2CCN(C)CC2)[C@H](C(C)C)C[C@H]1Cc1nnc(COc2ccc(F)cc2)o1`, the “% Inhibition” value is listed as -5% and the Z score was 0.7.

For `CC(C)[C@H]1CN(c2ccncc2)C[C@@H]1C(=O)O`, the “% Inhibition” value worked out at 0% and the Z score came to 0.01.

Consider `O[C@@]1(CN2CCCCC2)CCN(Cc2ccc(F)c(Cl)c2)C1`, for which the “% Inhibition” value is listed as -9% and the Z score is given as 1.8.

Turning to `COc1ncccc1-c1ccc(-c2nnc(N)s2)cc1`, the “% Inhibition” value is reported as -8% and the Z score is given as 0.75.

`O=C(Nc1ccc2oc(-c3ccccc3F)nc2c1)c1sc2ccccc2c1Cl`: the “% Inhibition” value was -19% and the Z score came to 2.62.

For the compound `C=CCNC(=O)c1csc(COc2ccc3c(c2)[C@H](c2cccc(F)c2)N(C(=O)C(C)(C)C)CC3)n1`, the “% Inhibition” value was determined as 3% and the Z score is -0.36.

Consider `N#Cc1cn[nH]c1NC(=O)C(=O)NCc1ccco1`, for which the “% Inhibition” value is -3% and the Z score is 0.35.
